Counter-ions that a name gives are not always drawn. ± gives the standard deviation of the averaged measurements. In all, about 3,200 compounds were measured (“nuclei count (viability) relative to DMSO”: median about 99, lowest 2% from about 16 on). This is one part of the list.
Tested on: U2OS
Test: nuclei count (viability) relative to DMSO (% of DMSO); higher = more viable cells
Settings: 10 µM; 24 h
Description: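 Primary image-based screen in U2OS cells: compounds at 10 uM for 24 h, then a 1 h o-propargyl-puromycin (OPP) pulse, click labelling, and high-throughput microscopy. Mean cytoplasmic OPP intensity and nuclei count were normalised to DMSO wells within each plate (DMSO = 100) and averaged over triplicate plates.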

Row | SMILES | nuclei count
1 | C/C=C(\C)C(=O)N[C@@H](c1ccccc1)[C@@H](O)C(=O)O[C@H]1C[C@@]2(O)[C@@H](OC(=O)c3ccccc3)[C@@H]3[C@]4(OC(C)=O)CO[C@@H]4C[C@H](O)[C@@]3(C)C(=O)[C@H](OC(C)=O)C(=C1C)C2(C)C [Cephalomannine] | 37.5
2 | CCC(COC(=O)c1cc(OC)c(OC)c(OC)c1)(c1ccccc1)N(C)C (stereo not drawn) [Trimebutine] | 102
3 | NCCc1c[nH]c2ccc(O)cc12 [Serotonin hydrochloride] | 99
4 | NCCc1c[nH]c2ccc(O)cc12 [Serotonin] | 103
5 | CCN(C(C)=O)c1cccc(-c2ccnc3c(C#N)cnn23)c1 [Zaleplon] | 100
6 | COc1ccc(C[C@H]2NC[C@H](O)[C@H]2OC(C)=O)cc1 [Anisomycin] | 12.5 ± 8.3
7 | CCC1(c2cccc(O)c2)CCCCN(C)C1 (stereo not drawn) [Meptazinol hydrochloride] | 101
8 | C[C@@H]1CC[C@H]2[C@@H](C)C(=O)O[C@@H]3O[C@@]4(C)CC[C@@H]1[C@]32OO4 [Artemisinin] | 97 ± 5.9
9 | CCNC1(c2cccs2)CCCCC1=O (stereo not drawn) [Tiletamine hydrochloride] | 113
10 | COc1cc([C@@H]2c3cc4c(cc3[C@H](O)[C@H]3COC(=O)[C@H]23)OCO4)cc(OC)c1OC [Podophyllotoxin] | 15.6
11 | CC(C)(C)NCC(O)COc1cccc2[nH]c(C#N)cc12 (stereo not drawn) [Cyanopindolol hemifumarate] | 92
12 | O=C1Nc2cc(Cl)c(Cl)cc2N2CCNCC12 (stereo not drawn) | 95.9
13 | COc1ccc(C(=O)O[C@H]2CC[C@@]3(C)[C@@H]4CC[C@H]5[C@]6(O)C[C@H](O)[C@@]7(O)[C@@H](CN8C[C@@H](C)CC[C@H]8[C@@]7(C)O)[C@]6(O)C[C@@]53O[C@]24O)cc1OC [Veratridine] | 99.4
14 | Cc1cccc([C@H](C)c2c[nH]cn2)c1C [Dexmedetomidine HCl (Precedex)] | 106
15 | CC1(C(=O)O)C2CCC(O2)C1(C)C(=O)O (stereo not drawn) [Cantharidic acid] | 66.9
16 | CCCN(CCC)[C@@H]1CCc2c(OC)cccc2[C@@H]1C [(+)-UH 232 maleate] | 109
17 | CC(C)(C)NCC(O)c1ccccc1Cl (stereo not drawn) [Tulobuterol] | 113
18 | C#C[C@]1(O)C=C[C@H]2[C@@H]3CCC4=CC(=O)CC[C@@H]4[C@H]3CC[C@@]21CC [Gestodene] | 97
19 | C[C@]12Cc3c[nH]nc3C[C@@H]1CC[C@@H]1[C@@H]2CC[C@@]2(C)[C@H]1CC[C@]2(C)O [Stanozolol] | 89.2
20 | Cc1nnc2ccc(-c3cccc(C(F)(F)F)c3)nn12 | 92.3
21 | C[C@@]12N[C@@H](Cc3ccccc31)c1ccccc12 [(-)-MK 801 maleate] | 107
22 | C[C@@]12N[C@@H](Cc3ccccc31)c1ccccc12 [(-)-MK 801 hydrogen maleate] | 106
23 | C[N+]12CCC(CC1)C(OC(=O)C(O)(c1ccccc1)c1ccccc1)C2 (stereo not drawn) [Clidinium bromide] | 97.1
24 | CO[C@]12C[C@@H](COC(=O)c3cncc(Br)c3)CN(C)[C@@H]1Cc1cn(C)c3cccc2c13 [Nicergoline] | 88.9 ± 20

Row | SMILES | nuclei count
25 | CC(=O)OCC1=C(C(=O)O)N2C(=O)[C@@H](N)[C@H]2SC1 [Cephalosporanic acid, 7-amino] | 101
26 | CC(=O)OCC1=C(C(=O)O)N2C(=O)[C@@H](N)[C@H]2SC1 [7-Aminocephalosporanic acid] | 78.3
27 | O=C1C(=O)c2ccccc2-c2ccccc21 [9,10-Phenanthrenequinone] | 21.7
28 | CC(=O)OCC(=O)[C@H]1CC[C@H]2[C@@H]3CC[C@H]4C[C@H](O)CC[C@]4(C)[C@H]3C(=O)C[C@]12C [Alfadolone acetate] | 100
29 | NCc1cc(O)no1 [Muscimol] | 104
30 | NC(=O)CN1CCCC1=O [Piracetam] | 105
31 | COc1cc2c(cc1OC)C(C)NCC2 (stereo not drawn) | 94.4
32 | C=C(C)[C@@H]1[C@H]2OC(=O)[C@@H]1[C@]1(O)C[C@H]3O[C@]34C(=O)O[C@H]2[C@]14C [Picrotoxinin] | 104
33 | CC(C)c1c(CN(C)C(C)Cc2ccccc2)n(C)n(-c2ccccc2)c1=O (stereo not drawn) [Famprofazone] | 102
34 | O=P1(NCCCl)OCCCN1CCCl (stereo not drawn) [Ifosfamide] | 106
35 | COc1ccc(C(=O)c2c(C)n(CCN3CCOCC3)c3cc(I)ccc23)cc1 | 80
36 | CCCCC/C=C\C/C=C\C/C=C\C/C=C\CCCC(=O)NCCO [Anandamide] | 103
37 | Oc1ccc2c3c1O[C@H]1c4oc5ccccc5c4C[C@@]4(O)[C@@H](C2)N(CC2CC2)CC[C@]314 [Naltriben mesylate] | 97.6
38 | COc1cc2c(cc1OC)C1CC(=O)C(CC(C)C)CN1CC2 (stereo not drawn) [Tetrabenazine] | 105
39 | CCCCC/C=C\C/C=C\C/C=C\C/C=C\CCCC(=O)Nc1ccc(O)cc1 | 97
40 | CCNC(=O)[C@H]1O[C@@H](n2cnc3c(N)ncnc32)[C@H](O)[C@@H]1O | 99.1
41 | Cc1cccc(C)c1NC1=NCCCS1 [Xylazine] | 108
42 | O=C(Oc1ccc([N+](=O)[O-])cc1)N1CCC(C(O)(c2ccc3c(c2)OCO3)c2ccc3c(c2)OCO3)CC1 | 111
43 | CCN(CC)CCO[C@H]1CC[C@@]2(C)C(=CC[C@@H]3[C@@H]2CC[C@]2(C)C(=O)CC[C@@H]32)C1 | 97
44 | CN1C(=O)COc2c(C(=O)NC3CN4CCC3CC4)cc(Cl)cc21 (stereo not drawn) | 96.5
45 | C[C@H](N)Cn1ccc2cc(F)c(Cl)cc21 [Ro 60-0175 fumarate] | 103
46 | CC[C@@H]1/C=C/C=C/C[C@H](C)[C@H](O)[C@](C)(O)C(=O)[C@H](C)[C@@H](O)[C@H](C)C(=O)[C@H](C)[C@@H](O)[C@H](C)/C=C/C(=O)O[C@H]2[C@@H](C)[C@@H](CC1)O[C@@]1(CC[C@@H](C)[C@@H](C[C@H](C)O)O1)[C@@H]2C [Oligomycin A] | 83.4
47 | CC(C)(C)[C@]1(O)CC2OC(=O)CC23C(=O)OC2OC(=O)[C@H](O)C231 (stereo partly drawn) [Bilobalide] | 112
48 | Cc1[nH]c2ccc(Cl)cc2c1C1=CCNCC1 | 96.9
